Among the data in the RNAGym collection of RNA variant scans (doi:10.7554/elife.90254) are self-cleavage values, retold here.

The source gives no read counts; variants with many changes may rest on few reads.

Sequences and labels used below:
B1: LINE1-mini (parent)
chain: GGCAGAGCUCAACACAGCGUGGCAAAGUGGCUGUGGCUAGACUGCC

This series covers variants of B1. Kind of series: self-cleavage, relative activity (ratio to wild type); higher = more cleavage; in vitro, sequencing; the parent is a self-cleaving ribozyme.
With A16U C18U A26C, the self-cleavage came out at 0.1. Take A16U G19A A24C G36U: the self-cleavage came out at 0.06. Regarding A16U G44A C45A, the self-cleavage worked out at 0.01. As for G17A A24U A25C, the self-cleavage was found to be 0.08.

In the case of A16G G21C U32G A39U G44A, the self-cleavage was found to be 0.01. The result for A16U G17U G29C U38G reads 0.03; that for A16U G22A G40U G44U C46A, 0.02; that for A16G G17U G29A G33U C46A, 0.05.

With G17A A25U U43C, the self-cleavage turned out to be 0.01. To A16G G33U U38C belongs 0.03.

For A16G C23U C45G, the self-cleavage was determined as 0.03. As for A16C G30C C37A C45U, the self-cleavage was 0.06. For the variant A16C U20C A39G, the self-cleavage turned out to be 0.03.

For A16C U38C C45A, the self-cleavage is 0.03.

On to A16U U20C C42G U43C, for which the self-cleavage amounted to 0.03. With A16G C18U G19A G36U, the self-cleavage was found to be 0.02. Regarding G17A C18U C31G, the self-cleavage came out at 0.04. Turning to A16U G19C G36A, the self-cleavage amounted to 0.1. For A16U G27A G33U, the self-cleavage is 0.02. Regarding A16U G17A U20A U32C, the self-cleavage is 0.04. Regarding A16C U34A C42A, the self-cleavage is 0.03. As for A16U G22C U28C G29A C31A, the self-cleavage is 0.01. As for A16U C18G G22C A41C, the self-cleavage is 0.03. In the case of G17A A26U G33A, the self-cleavage was found to be 0.18. As for G17A C18A U28A, the self-cleavage is 0.01. With A16G U20C G21U, the self-cleavage amounted to 0.46. As to A16U G29U U32G, the self-cleavage was determined as 0.13. For A16G U20G C23G, the self-cleavage was found to be 0.01. Take G17A C37A C45G C46G: the self-cleavage was 0.06. With G17A C31A C42U, the self-cleavage came out at 0.06.

As to A16G C37A C45U, the self-cleavage turned out to be 0.01. To A16U G22C U34G U38A belongs 0. The result for A16G G19A C42A reads 0.01; that for G17A A26C G27U G44A, 0.18; that for A16U G22U G29A G30C, 0.33. Take A16G U28C C46G: the self-cleavage stood at 0.06. With A16G U28C C46U, the self-cleavage was determined as 0.33.

Regarding G17A A39C G40U C45U, the self-cleavage is 0.01. As for A16U G17C G19A G40A, the self-cleavage was found to be 0.03. The result for A16G U28C G29U U32G reads 0; that for A16C U34C C46G, 0.02; that for A16C U34G G35U C46G, 0. As to A16G A24U G35U A41U, the self-cleavage was determined as 0.07. The result for A16U G19C G30C A41U reads 0.25. With G17A A26U A39U, the self-cleavage came out at 0.02. To A16G U20G G22U G30A belongs 0.17; to A16G G27U C46U, 0.18. For the variant A16U U34C G44C, the self-cleavage is 0.15. As to G17A A39G G40U, the self-cleavage stood at 0.01. Regarding A16C G22A A25G U32G A39G, the self-cleavage was 0.02. As to A16G G17C C46A, the self-cleavage amounted to 0.66. As to A16G C18U U32G C45A, the self-cleavage was found to be 0.01. The result for A16U G21A U34A reads 0.04. With A16C U20A A24G, the self-cleavage turned out to be 0.03. To A16G G19C C37A belongs 0.02; to A16G G17U C23G U34A, 0.01; to A16G C18U A26C A39U, 0.15.

Take A16U G30U C31U: the self-cleavage is 0.02.

In the case of A16U A26G C46G, the self-cleavage turned out to be 0.13. In the case of A16G A25G G30U C42G, the self-cleavage stood at 0.01. Regarding A16U U34A A41G, the self-cleavage was found to be 0.01. Turning to A16G G33C U38G, the self-cleavage was found to be 0.02. On to A16U G22U G29U, for which the self-cleavage was 0.26. Regarding A16U G36C U43A, the self-cleavage came to 0.05.

In the case of A16G C18U C31G, the self-cleavage was 0.01. To A16U U28G G35C belongs 0.01; to A16G G21A G44U, 0.05. For the variant A16G G21A G44C, the self-cleavage came to 0.23. Turning to A16C U34C G35A, the self-cleavage came to 0.05. As to A16G G29C G30C G36U G44U, the self-cleavage came to 0.05.

On to G17A A25G C45G, for which the self-cleavage turned out to be 0.02. For the variant A16U U34A G36U, the self-cleavage amounted to 0.04. A16G A24U C37A: the self-cleavage was 0.04.

Regarding A16C U28A G40U, the self-cleavage was found to be 0.05. To A16U A26U U34C U38G belongs 0.01; to A16U G22A U32C G35A U38A, 0. In the case of A16U C18G G27U C42U, the self-cleavage turned out to be 0.02.

As for A16G A25U C42A, the self-cleavage turned out to be 0.02. On to A16C U34G G35U G44U, for which the self-cleavage is 0.04. As for A16U G22C A41C, the self-cleavage is 0.03. A16U G29C G44A C45A: the self-cleavage came out at 0.06. The result for A16G C18A G19A A25G reads 0.

For the variant A16G G17C A25U U28C U32C, the self-cleavage was found to be 0.52. The result for A16C U34C C45U reads 0.23.

With A16G G30A G33U, the self-cleavage was 0.03. Take A16G G33A A39U: the self-cleavage is 0.07. The result for A16G C18A G21C C31A reads 0.03; that for A16G C18A C23A C42G, 0.01; that for A16U G17A G36A, 0.02. To A16G G21U C23A G44A belongs 0.11. Turning to A16U C23U G29C, the self-cleavage amounted to 1.34. The result for A16U C18A G30A reads 0.15; that for A16C G33A C45G, 0.04; that for A16U G30A U34G, 0.1.

As to A16G C42U C45G C46G, the self-cleavage came out at 0.02. For the variant A16C G22A U28A, the self-cleavage turned out to be 0.28. Regarding A16G C18U G35C G40C, the self-cleavage was found to be 0.01. The result for A16U G17A U28C reads 0.03. A16C G27U G36A: the self-cleavage worked out at 0.04. Take G17A C18G G44C: the self-cleavage was determined as 0.03. For A16U A26U C37G, the self-cleavage was 0.07. As for A16U U20C A26U A39U, the self-cleavage amounted to 0.35. For the variant A16G G17U G33U G36C, the self-cleavage stood at 0.01. In the case of A16U G17U U28G G36A, the self-cleavage amounted to 0.13. For the variant A16G G17A G19A A24U G27A, the self-cleavage amounted to 0.29. In the case of A16U G22C A26U C37U, the self-cleavage is 0.32. In the case of A16G G27U G36U A39U, the self-cleavage worked out at 0.04. Take A16G A26G U32A G36C A39C C42A: the self-cleavage was determined as 0.01. To G17A C23U U28G belongs 0.06; to G17A C18G G30A U34C, 0.06. On to G17A A24U A39U A41G, for which the self-cleavage is 0.08. On to A16G G19U C42G, for which the self-cleavage was found to be 0.02. As to A16U C23G U28A, the self-cleavage turned out to be 0.09. On to A16U C23A C45A, for which the self-cleavage was determined as 0.05. Take A16G G19A U20A G22C G30C: the self-cleavage was found to be 0.42.

Take A16U U34A U38C: the self-cleavage stood at 0.01. The result for A16G C31A U43A reads 0.

As for A16U G21C U34A, the self-cleavage is 0.02. With G17A C31U G40U C45A, the self-cleavage was found to be 0.02. Consider A16G G22A U43C C46G, for which the self-cleavage stood at 0. For A16G C18U G19U U28A U32G G33C, the self-cleavage was determined as 0.02. For the variant A16U G29U G36A C37U, the self-cleavage turned out to be 0.1.

In the case of A16U U20C G21A A25G G29C U32A U38G C45A C46U, the self-cleavage was 0.

On to A16U G19U G22A, for which the self-cleavage worked out at 0.2. To A16G A26C C31A U32G belongs 0.01; to A16U U20A G21C, 0.2; to A16U C37G U38A, 0. For A16U G27A C31A, the self-cleavage came to 0.03.

Regarding A16C G22U C45A, the self-cleavage amounted to 0.03. As to A16G G22A C23G, the self-cleavage came out at 0.44.

As to A16C G22A G29C, the self-cleavage was found to be 0.94. To A16U G17U G35C U38G C42U belongs 0.02. As for G17A C23A A24G, the self-cleavage is 0.01. As for A16G G21C G30C, the self-cleavage was determined as 0.83.

Consider A16G C31U A39G, for which the self-cleavage was 0.03.

Consider A16U G19A A41G C42G, for which the self-cleavage amounted to 0.2. To A16C U20C G40A belongs 0.04. Regarding A16C G22A G33C, the self-cleavage came out at 0.05.

On to A16U A26U C46A, for which the self-cleavage is 0.05. For A16U G35U G36U, the self-cleavage came to 0.14. For A16U C23G G36U, the self-cleavage was 0.05. G17A C31G U32G: the self-cleavage was 0.05. In the case of A16G G29U G44A, the self-cleavage turned out to be 0.12. Take A16G G36A G40U: the self-cleavage came out at 0.07. For A16U A24G A41U, the self-cleavage stood at 0.12. To A16U C31A G33C belongs 0. As to A16C G29U C46G, the self-cleavage is 0.15. With G17A C18A G21A A39U, the self-cleavage was found to be 0.13. For A16G C31A G40U, the self-cleavage is 0. The result for A16C G29A C31A G35A C45G reads 0.01; that for G17A C18U G29C U32G C42G, 0.06.

Consider A16U G22A U38C A41U, for which the self-cleavage came out at 0.1. For the variant A16U C37A G40A, the self-cleavage came to 0.08. G17A C18A A26G G35U G36C: the self-cleavage came to 0. For G17A C18A G27C G30C C37U, the self-cleavage is 0.02. To A16C G33A G40U belongs 0.04. To A16U G29C C31U C37U G44U belongs 0.04; to A16G A39U C46G, 0.23; to A16U C18A C31U C45A, 0.02. With A16G G22A G36A, the self-cleavage is 0.18. With A16G G19U G29U, the self-cleavage turned out to be 0.64.

Take G17A A26U G30A: the self-cleavage was determined as 0.28.

As for A16U G35U C46G, the self-cleavage turned out to be 0.05. For the variant A16G G21C U38G A39G, the self-cleavage was 0.01. For the variant A16U G19A G36U, the self-cleavage was determined as 0.08.

Take A16C G27C U34A: the self-cleavage is 0.07.

For A16G U20C G21C G27A, the self-cleavage was determined as 0.3.
